# Results reported in article PMC4336329 (PLoS ONE, 2015).
# Out of some 310,000 compounds screened, about 14,000 (4.5%) showed an effect of 50% or more. The effect is printed as a negative number. The list shows a part of the results.
# Biological target: human ether-à-go-go-related gene (hERG) potassium channel (human, UniProt Q12809)
# Assay: primary screen, population patch clamp on CHO cells stably expressing hERG
# 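Also: peak tail current of the secondary pulse compared with the same well before compound.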
# human ether-à-go-go-related gene (hERG) potassium channel, sequence (Q12809 whole entry, looked up): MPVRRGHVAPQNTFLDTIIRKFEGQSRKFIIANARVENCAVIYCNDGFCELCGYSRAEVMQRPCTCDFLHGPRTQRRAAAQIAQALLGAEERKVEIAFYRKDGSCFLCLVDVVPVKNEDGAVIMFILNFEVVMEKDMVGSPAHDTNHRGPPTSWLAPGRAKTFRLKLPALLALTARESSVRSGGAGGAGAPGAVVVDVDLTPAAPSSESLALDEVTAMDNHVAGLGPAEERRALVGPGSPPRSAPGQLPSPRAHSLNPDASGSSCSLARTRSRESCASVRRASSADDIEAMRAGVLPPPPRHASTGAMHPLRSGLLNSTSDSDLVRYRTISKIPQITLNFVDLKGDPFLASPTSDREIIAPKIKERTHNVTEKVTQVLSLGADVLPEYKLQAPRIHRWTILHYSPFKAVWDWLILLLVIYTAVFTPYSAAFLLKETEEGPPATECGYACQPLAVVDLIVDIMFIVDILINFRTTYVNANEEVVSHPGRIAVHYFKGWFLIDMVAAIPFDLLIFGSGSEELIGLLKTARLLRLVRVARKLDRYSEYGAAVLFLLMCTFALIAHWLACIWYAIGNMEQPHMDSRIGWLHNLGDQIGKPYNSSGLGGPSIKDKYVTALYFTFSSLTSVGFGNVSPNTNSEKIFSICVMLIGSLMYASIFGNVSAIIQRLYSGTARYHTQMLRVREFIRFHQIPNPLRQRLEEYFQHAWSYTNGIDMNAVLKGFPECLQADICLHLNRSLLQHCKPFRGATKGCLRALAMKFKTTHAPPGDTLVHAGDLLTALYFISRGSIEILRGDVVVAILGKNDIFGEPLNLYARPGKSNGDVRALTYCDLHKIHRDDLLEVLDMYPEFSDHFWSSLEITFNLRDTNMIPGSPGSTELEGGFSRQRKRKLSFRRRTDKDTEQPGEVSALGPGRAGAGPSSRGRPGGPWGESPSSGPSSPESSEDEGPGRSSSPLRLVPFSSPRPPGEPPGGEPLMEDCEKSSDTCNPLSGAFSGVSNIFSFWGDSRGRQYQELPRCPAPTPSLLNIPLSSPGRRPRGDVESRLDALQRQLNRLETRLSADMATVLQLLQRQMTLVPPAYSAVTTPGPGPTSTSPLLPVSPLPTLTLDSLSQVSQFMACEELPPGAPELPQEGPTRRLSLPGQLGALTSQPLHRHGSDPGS
row,Structure (SMILES),"hERG current change (%, negative = inhibition) at 10uM [%]"
1,O=C(COC(=O)c1cnccn1)c1ccc(OC(=O)c2ccccc2)cc1,1.51
2,Cc1conc1NC(c1cccs1)c1ccc2cccnc2c1O (stereo not drawn),-13.7
3,Cc1cc(=O)n2nc(N3CCCC(C(=O)NCc4ccc5c(c4)OCO5)C3)sc2n1 (stereo not drawn),-25.3
4,CCCCN(CC)CCCNC(=O)c1cc2cc3ccc(C)cc3nc2o1,-53.4
5,Oc1nc(Nc2cccc(Cl)c2)sc1/C=C1\C=Nc2ccccc21,4.36
6,O=C(Nc1ccon1)c1nc[nH]c1C(=O)NCc1ccccc1,12.7
7,COCCN(C(=O)COC(=O)c1ccc2c(c1)OCCO2)c1c(N)n(Cc2ccccc2)c(=O)[nH]c1=O,-1.5
8,CCc1cc2c3c(c(=O)oc2cc1OCC(=O)OC)CCCC3,-0.568
9,COC(=O)c1c(-c2c(Cl)cccc2Cl)noc1NC(=O)NN1CCCCC1,-14.7
10,O=C1C2C(C(=O)N1/N=C/c1ccco1)C1C=CC2C12CC2 (stereo not drawn),-2.95
11,COc1cc2cc(Oc3ccc4ccc(=O)oc4c3)c(=O)oc2cc1OC(C)=O,0.234
12,COc1ccc(-n2nc(C(=O)NCC(=O)NCCC3=CCCCC3)c3ccccc3c2=O)cc1,-2.65
13,Cc1ccc(CNC(=O)c2ccc(CNc3c(N4CCCC4)c(=O)c3=O)cc2)cc1,-2.17
14,COc1ccccc1Cc1nc(-c2ccc(C)cc2)no1,-11.8
15,OCC1(CCc2ccccc2)CCN(Cc2ccc3nsnc3c2)CC1,-77.7
16,CCOC(=O)CC1C(=O)NCCN1S(=O)(=O)c1ccc(Br)cc1 (stereo not drawn),-3.86
17,CC(C)(CC(=O)O)CC(=O)Nc1ccc2c(c1)ncn2CCc1ccccc1,15.8
18,CC(C)(C)c1csc(NNC(=O)c2ccc(Br)cc2)n1,11.4
19,O=C(Nc1cccc(F)c1)NC1CC2CCCC(C1)N2C1CC1 (stereo not drawn),-8.34
20,COc1ccc(-c2cc(C(=O)OCC(=O)c3c(N)n(C)c(=O)n(C)c3=O)c3ccccc3n2)cc1,-34.6
21,CCCOc1ccc(C(=O)Nc2ccc(N3CCN(C(=O)c4ccco4)CC3)cc2)cc1,13.2
22,CC(NC(=O)CN1CCN(S(=O)(=O)c2ccc(Br)cc2)CC1)c1ccccc1 (stereo not drawn),-36.9
23,COCCN1CCc2[nH]c(=S)[nH]c(=O)c2C1,-9.22

row,Structure (SMILES),"hERG current change (%, negative = inhibition) at 10uM [%]"
1,O=C(Nc1ccc(-c2cn3c(n2)SCC3)cc1)c1ccco1,10.2
2,CN(C)CCCN(C(=O)c1ccc(S(=O)(=O)N(C)C2CCCCC2)cc1)c1nc2ccc(Br)cc2s1.Cl,2.39
3,COC(=O)Cn1cc(/C=C2\C(=O)NC(=O)N(c3ccccc3)C2=O)c2ccccc21,6.36
4,CCCn1nnnc1NC(=O)CSc1ccc(Cl)cc1,5.42
5,COc1ccc([N+](=O)[O-])cc1NC(=O)C(C)Sc1ccccc1 (stereo not drawn),-18.3
6,COc1ccc(C2C3(C#N)C(N)=NC(OC)(OC)C23C#N)cc1 (stereo not drawn),-53.4
7,Cc1ccccc1-c1nn(-c2ccc(F)cc2F)cc1CNCCCN(C)C,2.75
8,CNc1c([N+](=O)[O-])cnn1-c1ccc(C)cc1,-2.24
9,CCC(Sc1nc2ncnc(N)c2[nH]1)C(=O)O (stereo not drawn),44.4
10,OCCNc1ncnc2ccc(Br)cc12,10.1
11,Cl.O=C(CNCc1ccccc1)NC1C2CC3CC(C2)CC1C3 (stereo not drawn),4.5
12,COc1ccccc1OCC(=O)Nc1cc(Cl)ccc1N1CCCCC1,-3.56
13,O=C(COC(=O)c1cc(=O)[nH]c2ccccc12)NCc1ccc(Cl)cc1,-3.34
14,Cc1ccc(NC(=O)CN2CCN(Cc3ccccc3)CC2)cc1Cl,-46
15,CN(Cc1nc(-c2cccs2)no1)CC1COCCO1 (stereo not drawn),1.17
16,CCOC(=O)CSc1nc(-c2ccccc2)nc2c1oc1ccccc12,6.49
17,O=C(CSc1ccccc1)N1CCN(c2ccccn2)CC1,-24.6
18,O=C(O)c1ccc(S(=O)(=O)N2CCC(n3nnc4cc(C(F)(F)F)ccc43)CC2)cc1,-37.7
19,COC(=O)C1=C(C)NC(=S)NC1c1ccc(OCC(=O)N2CCCCC2)c(OC)c1 (stereo not drawn),12.9
20,O=C(Nc1ccc([N+](=O)[O-])cn1)C1CCCCC1,2.46
21,O=C(CCN1C(=O)c2ccccc2C1=O)N1CCN(c2ccccc2)CC1,-23
22,CCCn1cc(CN2CCC(Cc3ccccc3)(C(=O)OCC)CC2)c(C)n1,-60.4
